Values marked as one replicate rest on one cluster of the flow cell; about a third of the high ones do not repeat.

The data set concerns ATP. As to the kind of experiment: switch fluorescence ratio, 500 uM ATP over buffer (Cy3 cluster intensity, sum of 5 cycles each) (fold (ratio)); higher = stronger signal-on switching upon ATP binding; sequences stand for … in TCGTCGGCAGCGTCAGATGTGTATAAGAGACAGTTTTTTTTTTTTTTTTTTTTTTTTT…TC. The settings on record: aptamer strand: ATP DNA aptamer (quencher-CACCTGGGGGAGTATTGCGGAGGAAGG + anchor), 100 nM annealed; ATP concentration: 500 uM; one replicate. The method in brief: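 Cy3-labelled switching-strand clusters on a modified Illumina MiSeq flow-cell were annealed to 100 nM quencher-labelled ATP aptamer and imaged first in selection buffer, then after 15 min with 500 uM ATP at 22 °C. NaOH stripping and re-annealing separated each of five buffer/ATP cycles, and clusters outside 100-1000 RFU were excluded. The fluorescence ratio sums target-cycle Cy3 intensity over buffer-cycle Cy3 intensity per cluster and averages it per switch-domain sequence.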
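Further: ATP exposure 15 min at 22 °C before imaging.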

With GTGCCAAGGA, the switch fluorescence ratio is 0.995.
With CAGACACTAG the figure was 1.01; with TGCAAAACTA, 1.04.
With CTGTACAATC the figure was 1.75; with ACGTGGCAGC, 1.04.
With TATTGAGCAG the figure was 1.01; with CTGAGAGATA, 1.05.
With GGAAGGGAAG, the switch fluorescence ratio is 0.978.
With ATCGTTCACA, the switch fluorescence ratio was determined as 0.962.
With CGCGCTGGCC the figure was 1.05; with AGCATCCACC, 1.19.
On to ACTTATGAGT, for which the switch fluorescence ratio stood at 0.976.
With TCGGGGT the figure was 1.02; with TAGAATGCGT, 1.05.
The result for AGAGCGATTT reads 1.03.
With GTCTAGCATG the figure was 1; with TGGGCAAAGG, 1; with TTGAGGTCAA, 1.76.
In the case of TTCGGTCCGA, the switch fluorescence ratio was 1.
With GGACTCCGTT the figure was 1.07; with CCTAGGGTAT, 1.02; with GTAACCCGCT, 1.07.
The result for AGCCGCTGGT reads 1.01.
Regarding TCGCCCCTG, the switch fluorescence ratio amounted to 1.03.
With ATATCCGGGG the figure was 1.01.
The result for AGCGTGTCCC reads 1.09; that for GAGTCAGTCC, 0.978; that for CAAATTCAAT, 1.
The result for GCGGTCTGGA reads 1.02; that for GGTGCTCGTG, 1.
Turning to CCGGCTAAAA, the switch fluorescence ratio turned out to be 1.08.
With CTAAATCCGA the figure was 1.06; with TCTAGTCCGG, 0.973; with CGTCACTTCA, 1.07.
The result for ACACAATGCC reads 1.13; that for GGGGAAAACC, 1.03.
The result for TACAGTTGAG reads 0.958; that for TTTATGCAGT, 1; that for CAGGCCGCTC, 1.08.
On to CCGATAGTGA, for which the switch fluorescence ratio came to 1.64.
TTTGGAAATA: the switch fluorescence ratio was 1.04.
With GCCGACGAAT the figure was 1.21; with CCATAAGAGC, 1.01.
As to TCAGTGACT, the switch fluorescence ratio amounted to 1.02.
The result for GTCTTTGG reads 0.967; that for CGCTCTACG, 1.17.
The result for GGTATACACC reads 0.967.
With GACGGGTATG the figure was 1.02; with GGGAAGCACC, 1.17.
Turning to CCGAAGGTTT, the switch fluorescence ratio was 1.04.
TTTGCGAGGC: the switch fluorescence ratio came to 1.12.
Regarding CTGTTACTTG, the switch fluorescence ratio is 0.983.
With ACGTAAAGAG the figure was 0.973; with GGAGCACTTT, 1.07.
As to AAGCCGTGTA, the switch fluorescence ratio was 1.04.
The result for TCTTGAGTGT reads 1.02.
The result for GGCAGGAATC reads 1.07; that for TAGAACCGAT, 1.12.
The result for TACCAGATCA reads 0.991; that for AATTCGCTTA, 1.14.
Consider ATCCAGAT, for which the switch fluorescence ratio came to 1.03.
The result for TCTGGGATCA reads 0.977; that for TATGACTTAG, 1.07.
With CCTGATGTGG the figure was 1.01; with GGTGGCGATG, 0.983.
With TAATTAAAGT the figure was 1.02.
Consider CTAAGGCTGG, for which the switch fluorescence ratio was determined as 1.02.
With CTGGATCGCT the figure was 1.08; with CACGAAAAAG, 1.11; with TATATTTAGG, 1.02.
The result for ACTTACTGTT reads 1.31; that for CTTCCCCGTT, 3.14; that for AGATCGCAGG, 0.995.
In the case of GTCTTTCCCT, the switch fluorescence ratio is 0.96.
The result for CACCGGCACA reads 1.52.
With ACGGACACAG the figure was 1.1; with ATTAACCGAT, 1.04.
With TCCAGGGGA the figure was 1.09; with CATGGCGTCC, 0.956.

Source of the values: the supplement of paper PMC10126150.
